# Entries after “also recorded” stand apart in the source; their conditions may differ.
# T1: HMGB1 in AIA joint lysate and sepsis sera (Rattus norvegicus, UniProt P63159)
# T1 construct: from tissue; host or cells: whole-paw joint lysate of AIA rats; sera of septic peritonitis mice; purchased human sepsis sera
# T1 sequence (P63159 2-215): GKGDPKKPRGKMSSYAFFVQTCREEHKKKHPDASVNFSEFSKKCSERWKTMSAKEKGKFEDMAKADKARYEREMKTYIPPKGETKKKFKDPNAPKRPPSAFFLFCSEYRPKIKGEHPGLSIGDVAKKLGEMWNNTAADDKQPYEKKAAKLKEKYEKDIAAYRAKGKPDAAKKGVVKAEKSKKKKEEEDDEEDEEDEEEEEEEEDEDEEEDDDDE
# B1: S6: human anti-HMG1 antibody, ATCC PTA-6143; VL/VH aa SEQ ID NO: 9/11 (antibody, listed as Homo sapiens, V domains shown)
# VH: EVQLLESGGGLVQPGGSLRLSCAASGFTFSWYDMSWVRQAPGKGLEWVSRISPSGGYTMYADSVKGRFTISRDNSKNTLYLQMNSLRAEDTAVYYCARLEVGATSGGTAFDIWGQGTMVTVSS
# VL: [gap - about 100 residues]
# How the values were obtained:
# [1] = tested on: passive CIA mouse model of arthritis; assay: Passive collagen-induced arthritis (CIA) mouse model; format: in vivo
# Protocol: Induction of Passive Collagen Induced Arthritis (CIA): To establish an arthritis model six-eight week old male DBA/1J mice (Jackson Labs, Bar Harbor, Me.) were used. Generally 5-8 mice per group are used, On day 0, mice were immunized with 2 mg/mouse of anti-collage mAb cocktail (Chemicon # ECM1100, 10 mg/ml) intravenously, i.v. at tail. Mice were subsequently injected with 50 μg LPS/mouse, i.p. on day 3. Each experiment had several groups of animals as follows: groups A-E in experiment 1, groups G-J in experiment 2 and groups L-N). An additional group of mice (groups F, K and O) were untreated as normal controls.
# Monitoring Disease: Beginning at day 0 all animals were observed daily to assess the status of the disease in their paws, which was done by assigning a qualitative clinical score to each of the paws. Every day, each animal has its 4 paws scored according to its state of clinical disease. The scoring is done by two observers, with at least one blinded. In addition, each mouse is weighed, to follow body weight changes, at the same time the paws are scored (see FIGS. 6A and 6D)
# The grading scale for the 4 lateral digits of each paw are graded as involved or not involved, i.e., 1 or 0. For example, a maximally involved left rear paw would be scored: ankle=3, midfoot=3, digits=4 (clinical score=10 units) We would repeat this for each paw and sum the scores. Mice are euthanized at day 14, or sooner if total clinical score reaches 40 and a histological evaluation of joints is performed.
# Histology: Hind-limb tibiotalus joints from each animal were evaluated and scored for histologic changes as described in Badger et al., 2001, Arthritis & Rheumatism 44:128-37. Briefly, animals were sacrificed on day 32 and the hind legs were fixed in formaline and decalcified in Cal-Rite (Richard-Allen Scientific, Kalamazoo, Mich.). The paws were then removed from the legs at the distal tibial diaphysis. After routine processing, the samples were embedded and coronal sections were cut in the plane midway through the tibiotalus and talartarsal joints. Sections were stained with Safranin O and counterstained with fast Green (data not shown).
# The histological characteristic of the bone and articular cartilage/periarticular soft tissue were scored separately by a blinded observer (FIGS. 13B and 13C). The bone was graded as follows: 0=normal, 1=subperiosteal fibrosis with periosteal woven bone formation, 2=Marrow inflammation, endosteal and trabecular bone resorption, 3=extensive inflammation, 4-marrow replaced by granulation tissue, little trabecular bone remaining, extensive obliteration of cortical contours. […]
# [2] = tested on: HMGB1 in AIA joint lysate and sepsis sera; assay: HMGB1 detection from biological samples (ELISA, immunoprecipitation and Western blot); format: binding; settings: ELISA (mouse peritonitis sera), IP (human sepsis sera)
# Protocol: (§1) HMGB1 Detection from Biological Samples: For detection of the HMGB1 from AA joint homogenates and peritonitis sera, sandwich ELISA was performed. Goat anti-human Fc (Pierce) 14 μg/ml in PBS was coated on Immunlon IV microtiter plate over night at 4° C. After washing and blocking with 5% milk 1 hr at room temperature, G4 or S6 in blocking buffer (10 μg/ml) were added to each well of the blocked plate. The plate was washed 1 hour later and 25 μl of AIA homogenates containing 0.8 μg/ml of HMGB1 or peritonitis sera containing 7 μg/ml of HMGB1 in 0.5 M NaCl/blocking buffer were added to the wells at two fold serial dilutions. The unbound materials were removed by washing one hr after incubation. The bound HMGB1 was detected by a mouse anti-HMGB1 antibody at 2 μg/ml followed by an anti-mouse antibody conjugated with horseradish peroxidase. Mouse peritonitis sera was obtained by heart puncture 7 days after infection with heat killed staphylococcus aureus. Joint lysate was prepared from the whole paw of AIA rats as described in Example 6 below. Human sepsis sera were purchased from a commercial source.
# (§2) Immunoprecipitation and Western Blot: Anti-HMGB1 mAbs (G4 and S6) and isotype control were first biotinylated using EZ-Link Sulfo-NHS-LC-Biotin as instructed by the manufacturer (Pierce). […] The bands were detected by LumiGlo substrate solution (KPL) after washing.
# [3] = biological target: T1, HMGB1 in AIA joint lysate and sepsis sera; assay: as above; format: binding; settings: ELISA and IP
# Protocol: as §1, §2
molecule,measurement,setting,value
B1,paw inflammation / clinical scores,[1]; passive CIA mice,more effective then even MTX/Renbrel therapy in reducing paw inflammation and in reducing bone loss and cartilage damage; also recorded: profound effect in diminishing the disease severity in CIA mice; also recorded: reduced clinical scores with S6 having a more dramatic effect
same,body weight,"[1]; passive CIA mice, experiment 1",did not lose as much as the control group; also recorded: showing better efficacy
same,"histological bone, cartilage and inflammation scores","[1]; passive CIA mice, experiment 1","greatly reduced bone, cartilage and total inflammation scores compared to the control animals; also recorded: significantly better then those treated with the MTX/Renbrel combination therapy"
same,in vivo CIA passive,"[1]; percent protection, isotype control subtracted",60%
same,binding / immunoprecipitation of HMGB1 from sepsis sera,[2],better binding to HMGB1 from sepsis sera by ELISA; also recorded: immunoprecipitate smaller band from human sepsis sera; also recorded: brings down a smaller form of HMGB1 from sepsis sera
same,binding / immunoprecipitation of HMGB1 from arthritis (AIA) joint lysate,[3],did not bind or immunoprecipate HMGB1 from arthritis joints; also recorded: does not immunoprecipitate HMGB1 from joint lysates

# — patent US20080311122A1, “Antagonists of Hmgb1 and/or Rage and Methods of Use Thereof” (Medimmune, LLC, priority 2005, published 2008)
